The text below walks through data of PubChem BioAssay AID463173 (ICCB-Longwood Screening Facility, Harvard Medical School, 2010).

SMILES strings stand for the structures. The whole screen tested about 52,000 compounds, of which about 4,300 (8.3%) were called active. Cut-off read from the data, not from the text of the source: active = survival mostly below about 52% (no sharp cut-off); inactive = mostly above about 56%. Some of the results follow.

This experiment relates to DeltatarO mutant. Put plainly: growth inhibition of S. aureus wild type versus tarO mutant, primary screen, teichoic acid synthesis inhibitors, RN4220, OD600 (AID 463173). As to conditions: OD600, 18 h, stronger effect = lower value, screened at 18.75 µg/mL (by protocol).
Regarding `Cc1ccc(NC(=O)c2ccc(-c3ccccc3)s2)cc1`, the survival is inactive: 82%.

As to `CC(=O)c1ccc(NC(=O)c2sc(-n3nc(C)c(Cc4ccc5c(c4)OCO5)c3C)nc2C)cc1`, the survival was inactive: 59%.

Turning to `CCC1CCCCN1CCCNC(=O)c1ccc2c(c1)N(Cc1cccc(Cl)c1)C(=O)c1ccccc1S2(=O)=O` (stereo unspecified), the survival is inactive: 57%.

Regarding `O=C(Nc1ccc2oc(-c3ccc(Br)cc3)nc2c1)c1cc2ccccc2o1`, the survival was inactive: 55%.

Consider `COc1cccc(CNCc2c(C(=O)O)n(Cc3ccc(C)cc3)c3cc(C)ccc23)c1OC`, for which the survival is inactive: 95%.

For the molecule `COc1ccc(N2CCN(C(=O)c3noc4c3CCCCC4)CC2)cc1`, the survival was inactive: 72%.

With `O=c1oc2c(CN3CCOCC3)c(O)ccc2cc1-c1ccccc1`, the survival is inactive: 89%.

For the molecule `COc1ccc(OCC(=O)N2CCN(C(=O)c3ccc(OC)c(OC)c3)CC2)cc1`, the survival was inactive: 150%.

`Cc1cccc(C)c1NC(=O)CCSCCc1ccccn1`: the survival is inactive: 86%.

With `COc1cn(CC(=O)Nc2ccc(C)cc2)c(CN2CCCCC2)cc1=O`, the survival is inactive: 90%.

For the molecule `O=C(CCNS(=O)(=O)c1ccc2c(c1)CCN2C(=O)C1CC1)Nc1ccc(Cl)cc1`, the survival was inactive: 76%.

For `CC(=O)N1CCc2cc(Br)cc(S(=O)(=O)CCC(=O)NCc3ccc(F)cc3)c21`, the survival was inactive: 56%.

In the case of `COc1ccccc1CN1CCC(CNC(=O)c2cnn(-c3cccc(Cl)c3)c2C2CCN(C(=O)OC(C)(C)C)CC2)CC1`, the survival is inactive: 86%.

Take `Cc1c(NS(=O)(=O)c2ccc(C(C)(C)C)cc2)c(=O)n(-c2ccccc2)n1C`: the survival was inactive: 44%.

Take `Cc1ccc2occ(CC(=O)Nc3c(C)cccc3C)c2c1`: the survival is inactive: 107%.

Regarding `CCCN(C(=O)c1ccc2c(=O)n3c(nc2c1)CCCCC3)c1cccc(Cl)c1`, the survival was inactive: 74%.

As to `Cc1cc(C)cc(NCc2nnc3n2CCCCC3)c1`, the survival was inactive: 89%.

With `Cc1ccc(-n2ncc3c(NC4CCCCC4)ncnc32)cc1C`, the survival was inactive: 89%.

Regarding `Cc1ccc(C2C(C#N)=C(N)SC(N)=C2C#N)c(C)c1`, the survival is inactive: 86%.

In the case of `O=C(c1ccccc1)n1nc(-c2ccc(Cl)cc2)nc1NCc1ccco1`, the survival was active: 23%.

As to `CCOC(=O)c1cc2c(=O)n3ccccc3nc2n(CCOC)c1=NC(=O)c1c(-c2c(F)cccc2Cl)noc1C`, the survival was inactive: 148%.

As for `CSc1ccc(CCNC(=O)Cn2ncc3c([nH]c4ccccc43)c2=O)cc1`, the survival is inactive: 95%.

On to `Cc1cccc(NC(=O)CN2C(=O)C(c3ccc(F)cc3)=NC23CCCCCC3)c1C`, for which the survival was inactive: 63%.

`COCC(C)NCc1ccccc1OC` (stereo unspecified): the survival is inactive: 94%.

Regarding `Cc1cc2c(cc1S(=O)(=O)NCc1ccc(F)cc1)OCC(=O)N2`, the survival was inactive: 89%.

On to `COc1ccc(C(=O)Nc2ccccc2)cc1`, for which the survival was inactive: 98%.

With `COc1ccc(NC(=O)CN2C(=O)COc3ccc(S(=O)(=O)NC4CCCC4)cc32)cc1OC`, the survival is inactive: 75%.

`Cc1ccc(OCc2cc(=O)n3cc(C)sc3n2)c(NC(=O)c2ccco2)c1`: the survival is inactive: 81%.

`COc1ccc(NC(=O)c2cnc3sc(N4CCOCC4)nn3c2=O)c(OC)c1`: the survival was inactive: 55%.

For `Cc1ccc(C)c(NC(=O)Cn2cc(S(=O)(=O)NC(C)C)c(S(=O)(=O)NC(C)C)c2)c1`, the survival is inactive: 85%.

For the molecule `O=C(O)c1cc(N2C(=O)C3CC=CCC3C2=O)ccc1NCc1cccnc1` (stereo unspecified), the survival is inactive: 90%.

Turning to `N=C(N)N=Nc1ccc(O)cc1`, the survival was inactive: 99%.

Consider `CCOc1ccc(NC(=O)c2ccc3nc(C(C)C)oc3c2)cc1`, for which the survival is inactive: 78%.

Take `COc1ccc(Cn2c(C(=O)O)c(CNCc3ccc(C)o3)c3ccc(OC)cc32)cc1`: the survival was inactive: 69%.

Take `CCc1cccc(NC(=O)Cn2nc(C)c3sc4ccccc4c3c2=O)c1`: the survival is inactive: 74%.

Consider `COc1ccccc1OC(C)C(=O)N1CCC(c2nc3ccccc3s2)CC1` (stereo unspecified), for which the survival is active: 2%.

For `COc1ccc(-c2nnc(SCC(=O)Oc3cc(C)ccc3C)o2)cc1`, the survival was inactive: 67%.

Take `CCOC(=O)c1cc2c(=O)n3ccccc3nc2n(CC2CCCO2)c1=NC(=O)c1ccc(F)cc1` (stereo unspecified): the survival is inactive: 54%.

With `N#CC1=C(N)NC(SCC(=O)Nc2ccc(Br)cc2)=C(C#N)C12CCCCC2`, the survival was active: 12%.

Take `CCCCCNC(=O)c1ccc2c(=O)n(CCc3ccccc3)c(=O)[nH]c2c1`: the survival is inactive: 76%.

For `CCOC(=O)N1CCc2c(sc(NCc3cccc(F)c3)c2C(=O)Nc2ccc(OCC)cc2)C1`, the survival was inactive: 67%.

For `COc1ccc(C(=O)Nc2nonc2-c2ccc(OC)c(OC)c2)cc1Cl`, the survival was inactive: 49%.

As to `Cc1ccc(-c2nc(Cn3c(SCc4ccc(F)cc4)nc4cccnc43)c(C)o2)cc1`, the survival was inactive: 91%.

Regarding `CCCn1c(NCc2ccccc2F)nc2ccccc21`, the survival was inactive: 90%.

`O=C(Nc1cccc(NC(=O)c2ccc(Br)cc2)c1)c1ccccc1`: the survival was inactive: 76%.

Turning to `COC(=O)COc1ccc(S(=O)(=O)N2CCC(C)CC2)cc1`, the survival was inactive: 95%.

For `CCC(=O)N1c2ccc(S(=O)(=O)CCC(=O)N3CCN(c4ccc(F)cc4)CC3)cc2CC1C` (stereo unspecified), the survival is inactive: 86%.

As for `COc1ccc2c(c1)CC(NC(=O)Nc1ccc(Br)c(C)c1)CO2` (stereo unspecified), the survival was inactive: 75%.

`CCO/C(C)=N\Oc1nc2nonc2nc1O/N=C(/C)OCC`: the survival is inactive: 115%.

For the molecule `COc1cccc(NC(=O)C2CCN(S(=O)(=O)c3c(C)noc3/C=C/c3cccs3)CC2)c1`, the survival was inactive: 58%.

Consider `O=C(COc1ccccc1Cl)Nc1nc(-c2ccc(F)cc2)ns1`, for which the survival is inactive: 55%.

With `CCc1nnc(SCc2nc(-c3cccc(C)c3)oc2C)c2cc3sc(C)cc3n12`, the survival is inactive: 82%.

As to `O=C(CSc1nccn1-c1ccc(F)cc1)Nc1cccc2ccccc12`, the survival was inactive: 85%.

As to `C#CCNc1ccccc1`, the survival is inactive: 106%.

For `O=C(Nc1ccc2ccccc2c1)C1CC(=O)N(C2CCCCC2)C1` (stereo unspecified), the survival is inactive: 92%.

Turning to `CC(=O)c1ccc(S(=O)(=O)N2CCn3cccc3C2c2ccc(F)c(F)c2)cc1` (stereo unspecified), the survival was inactive: 77%.

Turning to `COc1ccc(CNc2ncnc3c2c(-c2ccccc2)cn3-c2cccc(C)c2)cc1`, the survival was inactive: 67%.

Regarding `Cc1cc(=O)c2c(o1)CC(C)(C)CC2=O`, the survival was inactive: 79%.

Regarding `CC(C)Oc1ccc(CNC(=O)c2ccc3c(c2)N(C)C(=O)C2CCCCN32)cc1` (stereo unspecified), the survival was active: 37%.

Turning to `Nc1nc(CSc2ccccn2)nc(Nc2ccccc2)n1`, the survival was inactive: 97%.

On to `Cc1ccc(N2CC(NC(=O)C3CCCC3)CC2=O)cc1C` (stereo unspecified), for which the survival is inactive: 103%.

For `CCOCc1[nH]c(=S)[nH]c(=O)c1Cc1ccc(OCC)cc1`, the survival was inactive: 62%.

Consider `CC(C)c1ccc(NC(=O)CN2CCC(n3nnc4ccccc43)CC2)cc1`, for which the survival was inactive: 69%.

With `CCNC(=O)C1CCCN(c2nn3cc(-c4ccc(C)cc4)nc3s2)C1` (stereo unspecified), the survival was inactive: 74%.

As to `CC(C)c1ccc(CNCCSc2nnnn2-c2ccccc2)cc1`, the survival was inactive: 81%.

On to `CCc1ccc(NC(=O)Cn2c(=O)n(CCC(=O)NCCc3ccc(OC)c(OC)c3)c(=O)c3ccccc32)cc1`, for which the survival is inactive: 91%.

Consider `CCC(C)S(=O)(=O)c1oc(-c2ccc(F)cc2)nc1S(=O)(=O)c1ccc(F)cc1` (stereo unspecified), for which the survival is active: 41%.

Turning to `Cc1scc(-c2ccccc2)[n+]1CCO`, the survival was inactive: 74%.

As to `CCOc1ccc(-n2nc3ccc(NC(=O)COc4ccccc4)cc3n2)cc1`, the survival was inactive: 68%.

For `CC(=O)Oc1ccccc1C(=O)N1CC(C)OC(C)C1` (stereo unspecified), the survival was inactive: 77%.

In the case of `CCOC(=O)c1c(-c2ccccc2)oc2cc(Br)c(OCc3ccccc3)cc12`, the survival was active: 36%.

For the molecule `CCn1c(=N)c(C(=O)NC2CCCC2)cc2c(=O)n3cc(C)ccc3nc21`, the survival was inactive: 50%.

Take `Cc1ccc(OCCCCn2nnc3sc4c(c3c2=O)CCC(C)C4)cc1` (stereo unspecified): the survival is inactive: 56%.

`CC(=O)N(Cc1ccccc1)Cc1cc2cc(C)ccc2n2nnnc12`: the survival was inactive: 77%.

`CCN(CC)S(=O)(=O)c1ccc2c(c1)N(CC(=O)NCCCN1CCN(c3cc(C)ccc3C)CC1)C(=O)CO2`: the survival is inactive: 112%.

Regarding `O=C(Cn1c(=O)n(-c2ccc(F)c(Cl)c2)c(=O)c2sc3ccccc3c21)NC1CCCCC1`, the survival is inactive: 102%.

On to `CC(C)CNS(=O)(=O)c1ccc(S(=O)(=O)N2CCCN(Cc3ccccc3)C2)cc1`, for which the survival was inactive: 59%.

With `Cc1ccc(Cl)cc1Nc1nn2c(=O)c3ccc(C(=O)NC4CCC(C)CC4)cc3nc2s1` (stereo unspecified), the survival was inactive: 100%.

As for `CN1CCN(C2(CNC(=O)COc3ccc(C(C)(C)C)cc3)CCCCC2)CC1`, the survival is inactive: 77%.

For `CCc1cccc(C)c1NC(=O)C(NS(=O)(=O)c1ccc2c(c1)CCC(=O)N2)c1ccccc1` (stereo unspecified), the survival was inactive: 89%.

With `CCN1CCc2c(sc(-n3cccc3)c2C(CCC(C)C)NC(=O)NCCC(=O)OC)C1` (stereo unspecified), the survival is inactive: 101%.

Take `CCCn1c2ccccc2c2cnn(CC(=O)NCCCOC(C)C)c(=O)c21`: the survival was active: -5%.

For the molecule `Cc1ccc(C)c(N2CCN(C(c3ccccc3)c3nnc(-c4ccccc4)o3)CC2)c1` (stereo unspecified), the survival is active: -5%.

For `COc1ccc(CN(Cc2ccco2)S(=O)(=O)c2ccc(S(=O)(=O)N3CCCC3)cc2)cc1`, the survival is inactive: 78%.

Turning to `Cc1ccc(NS(=O)(=O)c2c(C)nc3sc(C)c(C)n3c2=O)cc1F`, the survival was inactive: 60%.

Regarding `CCOC(=O)c1cc(-c2ccccc2)n(-c2cccc(C(=O)NC(C)(C)C)c2)c1C`, the survival was inactive: 112%.

With `CCOC(=O)c1cnc2ccc(OCC)cc2c1NCCc1ccc(OC)c(OC)c1`, the survival is inactive: 116%.

As to `CCOc1ccc(S(=O)(=O)NCc2cccn2Cc2cccc(C)c2)cc1`, the survival was inactive: 84%.

On to `CC(C)COc1ccc(C(=O)N(Cc2cccc(F)c2)C2CCS(=O)(=O)C2)cc1` (stereo unspecified), for which the survival is inactive: 77%.

Turning to `CCCn1c(=N)c(C(=O)NC2CCCCC2)cc2c(=O)n3cc(C)ccc3nc21`, the survival is inactive: 51%.

As for `O=C(Cn1c(=O)n(Cc2ccc(F)cc2)c(=O)c2sc3ccccc3c21)Nc1ccc(F)cc1F`, the survival is inactive: 68%.
